Data: PubChem BioAssay AID1346428 (National Center for Advancing Translational Sciences (NCATS), 2018)
Values joined by “and” are separate entries in the source; they are usually repeats but may differ in a detail not shown here. Identical values can stand only once. Hit rate of the full screen: of about 48,000 compounds, about 1,200 (2.5%) were called active. Inconclusive results (about 2%) are left out.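 Rule for the calls: active = activation of at least 60% and not above a set upper limit (about 1 call in 100 departs from these limits); inconclusive = activation of 40% to 60%, or above that upper limit; inactive = activation under 40%.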 This is one part of the list.

Molecular target: Probable G-protein coupled receptor 32 (Homo sapiens) (UniProt O75388)
Assay: qHTS for Agonists of Human Resolvin D1 Receptor DRV1; note: 0% is about no effect
Conditions: CHO-K1 GPR32 beta-arrestin PathHunter luminescence, 90 min; at 76.9 µM; active compounds read high; zero percent set by DMSO-only wells
Summary of the method: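 GPR32 activation in stably transfected CHO-K1 cells, detected as beta-arrestin recruitment by enzyme-fragment complementation. Compound exposure: 90 min, 37 °C.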

Chain of UniProt O75388 (O75388 whole entry, looked up): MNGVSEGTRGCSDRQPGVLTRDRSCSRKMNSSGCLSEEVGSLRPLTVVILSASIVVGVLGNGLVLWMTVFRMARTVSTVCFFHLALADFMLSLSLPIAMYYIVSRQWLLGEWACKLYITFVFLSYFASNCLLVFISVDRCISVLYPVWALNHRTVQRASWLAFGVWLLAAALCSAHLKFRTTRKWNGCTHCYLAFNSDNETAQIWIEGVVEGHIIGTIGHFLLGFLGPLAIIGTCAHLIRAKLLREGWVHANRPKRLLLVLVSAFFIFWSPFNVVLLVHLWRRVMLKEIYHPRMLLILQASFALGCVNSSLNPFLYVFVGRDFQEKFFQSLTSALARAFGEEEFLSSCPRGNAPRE

activation, inactive:
CCOC(=O)c1c(C)[nH]c(C)c1S(=O)(=O)N1CCN(c2ccccc2OC)CC1 -26.3%, CCOC(=O)c1c(C)oc2ncnc(N3CCN(c4cccc(Cl)c4)CC3)c12 -6.18%, CCOC(=O)c1cccc(Nc2cc(C)nc(C)n2)c1 -1.64%, Oc1ccc(Nc2nc(-c3ccc(Cl)cc3)nc3ccccc23)cc1 -16.8%, Cc1noc(Cn2c(=O)c3ccccc3n(CC(=O)Nc3ccccc3C(F)(F)F)c2=O)n1 -7.89%, Cc1cccc(-n2ncc3c(Nc4c(C)cc(C)cc4C)ncnc32)c1 -33.1%, Cc1nnc2c3ccccc3nc(N3CCN(c4cccc(Cl)c4)CC3)n12 -1%, CCOCCCn1c(=N)c(C(=O)NC2CCCC2)cc2c(=O)n3cccc(C)c3nc21 -12.2%, CCCCOc1ccc(C2c3c(oc4ccccc4c3=O)C(=O)N2c2nc(C)c(C(=O)OCC)s2)cc1OC (stereo not given) 15.5%, CCc1ccc(NC(=O)c2ccc3c(c2)c(C)c(C)n3Cc2ccccc2)cc1 -5.7%, CCc1ccc(NC(=O)c2oc3c(c2C)-c2[nH]ncc2CC3)cc1 4.96%, COc1ccccc1CNC(=O)CN1C(=O)CCCc2ccccc21 -17%, O=C(CCC1N=C2c3ccccc3N=C(SCc3cccc(F)c3)N2C1=O)NCc1ccc(F)cc1 (stereo not given) -8.72%, CC(=O)c1ccc(NC(=O)c2ccc(CN3C(=O)CCn4nc(C)cc43)cc2)cc1 -6.29%, Cc1ccc(S(=O)(=O)Nc2ccc3c(c2)c(C(=O)OC(C)C)c(C)n3S(=O)(=O)c2ccc(C)cc2)cc1 -28.6%, COc1ccc(S(=O)(=O)NCCc2cn3ccsc3n2)cc1 -9.88%, O=C(Nc1ccccc1Br)N1CCN2CCCCC2C1 (stereo not given) -3.8%, CCc1ccc(NC(=O)CN2C(=O)CCSc3ccc(S(=O)(=O)N4CCCC4)cc32)cc1 -7.59%, COc1ccc(C(=O)c2cn(Cc3cccc(C)c3)c3cc4c(cc3c2=O)OCCO4)cc1OC -17.3%, NC1CCN(c2cccc(Cl)n2)CC1 32.9% and -14.7%, Cc1nn2c(=O)cc(COC(=O)c3ccc(F)cc3)nc2s1 -14.2%, CC1C(=O)N(C)C(=O)c2nc[nH]c21 (stereo not given) -0.0662%, COC(=O)c1ccccc1NC(=O)c1cc(=O)c2ccc(C)c(C)c2o1 1.06%, Cn1nnnc1SCCCNCc1ccccc1OCc1ccccc1F -0.159%, Cc1ccc(N(C(=O)c2cccc(C)c2)S(=O)(=O)c2ccc(Cl)cc2)cc1 -10.5%, CCN(CC)CCNC(=O)Cn1ncc2c3ccccc3n(Cc3ccccc3C)c2c1=O 6.36%, COc1ccc(CCNC(=O)Cn2ccc3cc(S(=O)(=O)N4CCCCC4)ccc32)cc1OC -16%, COc1ccc(Cn2ccc3nc(C)c(C(=O)Nc4ccc(OC)cc4OC)cc3c2=O)cc1 -8.42%, O=C1Nc2cc(Cl)ccc2Oc2cc(Oc3ccccc3)ccc21 22.6%, Cc1ccc(C)c(CN2C(=O)c3ccccc3S(=O)c3ccc(C(=O)NCc4ccco4)cc32)c1 (stereo not given) -10.1%, Cc1ccc(NC(=O)Cn2c(=O)n(CCc3ccccc3)c(=O)c3c4c(sc32)CCCC4)cc1C -16.6%, Cc1cc(C)c(S(=O)(=O)Nc2cccc(-c3cn4ccccc4n3)c2)c(C)c1 -9.89%, O=C(C1CC1)N1CCc2cc(Br)cc(S(=O)(=O)N3CCN(c4ccccc4F)CC3)c21 -8.77%, Cc1ccc(N2CC(NC(=O)/C=C\c3ccc4c(c3)OCO4)CC2=O)cc1 (stereo not given) -0.258%, COc1ccc(CNC(=O)Cn2ccc3cc(S(=O)(=O)N4CCCCCC4)ccc32)c(OC)c1 -6.35%, COc1ccc(Oc2nc3c(c(=O)n(Cc4ccccc4Cl)c(=O)n3C)n2C)cc1 15.5%, COC(=O)c1c(SCC(=O)Nc2ccccc2OC)[nH]c2ccccc2c1=O -20.7%, Cc1cc2ccccc2n1-c1ccc(C(=O)N2CCC(C(=O)NCc3ccc(F)cc3)CC2)s1 -9.18%, CC(C)n1c(=O)c2oc3ccccc3c2n(Cc2ccccc2F)c1=O -9%, Cc1ccc(-c2nnc(Nc3ccc(O)cc3)c3ccccc23)cc1S(=O)(=O)NCC1CCCO1 (stereo not given) -56.7%, O=C(/C=C/c1ccco1)Nc1ccc(Cl)c(-c2nc3cc(Cl)ccc3o2)c1 -29.3%, Cc1ccc(NC(=O)C2CCN(c3nn4c(=O)cc(C)nc4s3)CC2)cc1 -18.2%, Cc1c(Cl)cccc1NC(=O)CSc1cc(-c2ccccc2)ncn1 -7.67%, COc1cccc(NC(=O)c2ccc(CNS(=O)(=O)c3ccc4c(c3)C(C)(C)C(=O)N4C)cc2)c1 -4.86%, CC12CN3CC(C)(CN(C1)C3c1ccc(OCc3ccccc3)cc1)C2=O (stereo not given) 6.63%, CCOC(=O)c1cccc(NC(=O)CCNS(=O)(=O)c2cccc3nonc23)c1 -14.3%, CN(C)c1cccc(C(=O)Nc2ccc(-c3nc4ccccc4s3)cc2)c1 -3.87%, O=c1cc(CO)occ1O -20.5%, O=C(CSc1nc2c(oc3ccccc32)c(=O)[nH]1)Nc1cccc(Cl)c1 3.74%, CC1=C(c2ccc(Cl)cc2)S(=O)(=O)NC1=NCc1ccc(C)cc1 -10.5%, COc1ccc(-c2nc3scc(CCNS(=O)(=O)c4cccc(C(C)=O)c4)n3n2)cc1 -8.68%, Cc1ccc(CCNC(=O)c2ccc(CSCc3ccc(C)cc3)o2)cc1 -10.2%, CCOC(=O)c1ccc(NC(=O)c2cc3c(n(-c4ccc(C)cc4)c2=O)CC(C)(C)CC3=O)cc1 -2.36%, Cn1c(C(=O)N2CCC(C(=O)NCCc3ccc(S(N)(=O)=O)cc3)CC2)cc2sccc21 -13.3%, CCc1ccc(NC(=O)Cn2c(=O)ccc3cc(S(=O)(=O)N4CCCC4)ccc32)cc1 13%, Cc1ccc(NC(=O)CSc2nnc(C)c(=O)[nH]2)cc1 -5.48%, CCCOc1ccccc1C(=O)N1CCCCC1CCN1CCCCC1 (stereo not given) -14.7%, CN1CC(=O)N2[C@H](c3ccc4c(c3)OCO4)c3[nH]c4ccccc4c3C[C@@H]2C1=O -4.13%, CCc1ccc(-n2nc(C)c3c(C(=O)Nc4ccc(Cl)cc4)cc(C)nc32)cc1 -0.39%, CCCCNC(=O)CSc1nc(-c2ccc(OC)cc2)cc(C(F)(F)F)n1 -5.93%, Cc1ccc(C)c(-c2ccc(=O)n(C(C)C(=O)Nc3ccccc3C(F)(F)F)n2)c1 (stereo not given) -8.22%, CCC(=O)N1c2ccccc2CC1C(=O)NCCc1ccccc1OC (stereo not given) -12.4%, O=C(NC1CC(=O)N(c2cccc(F)c2)C1)c1ccc(S(=O)(=O)N2CCCCC2)cc1 (stereo not given) -2.03%, COc1ccc(OC)c(-n2nnc(-c3nc(-c4ccc5c(c4)OCO5)no3)c2C)c1 -19.9%, COc1ccc(C(=O)Nc2cc(-c3nc4ncccc4o3)ccc2C)cc1Br 3.78%, COC(=O)c1ccccc1NC(=O)CCn1c(=O)c2cccn2c2cccnc21 -3.9%, Cc1ccc(OCC(=O)Nc2nnc(SCc3cc(=O)n4cc(C)ccc4n3)s2)cc1 -6.03%, Cc1noc(-c2ccc(N(C)Cc3ccccc3)c([N+](=O)[O-])c2)n1 0.997%, CC(=O)Nc1ccc(C)cc1-c1nc2ccccc2n(Cc2cccc(Br)c2)c1=O 0.251%, COc1ccc(OCc2nc(-c3ccc(OC)c(OC)c3)no2)cc1 10.8%, CC(=O)Nc1c(C)nn(-c2ccccc2)c1N1CCC(C(=O)Nc2ccc(C)cc2Cl)CC1 -6.16%, COc1ccc(CCNc2oc(/C=C/c3ccc(OC)c(OC)c3)nc2C#N)cc1 0.937%, CCc1ccc(NS(=O)(=O)c2cc(Br)cc3c2N(C(C)=O)CC3)cc1 -5.02%, CC(=O)Nc1ccc(NC(=O)c2ccc3c(c2)CCN3S(=O)(=O)c2ccc(Cl)cc2)cc1 8.31%, CCOC(=O)C1CCCN(C(=O)c2ccc(C)c(NC(=O)c3nsc4ccccc34)c2)C1 (stereo not given) -10.3%, COc1cccc(NC(=O)CSc2nnc3[nH]c(=O)cc(-c4ccccc4)n23)c1 -7.07%, C1CCC(C(CC2CCCCN2)C2CCCCC2)CC1 (stereo not given) 38.3%, CCCc1nc2nc(C)c(NS(=O)(=O)c3ccc(C)c(C)c3)c(=O)n2[nH]1 5.6%, CC(=O)c1ccc(NC(=O)C2CCCN(S(=O)(=O)c3ccc(Br)s3)C2)cc1 (stereo not given) 2.64%, CCOC(=O)C1CCN(c2nc3c(S(=O)(=O)c4ccc(CC)cc4)nnn3c3ccc(Cl)cc23)CC1 -13.4%, Cc1cccn2c(=O)c3cc(C(=O)NC(C)(C)C)n(C)c3nc12 -1.57%, Cc1cc(Cl)ccc1NC(=O)CS(=O)(=O)c1cccc2nsnc12 -7.39%

activation, active:
Cc1ccc(CCNC(=O)CN2CCN(Cc3ccc(Cl)cc3)C2=O)cc1 60.1%, CCc1ccc(NC(=O)Cn2nnc(C(=O)Nc3cc(C)ccc3OC)c2N)cc1 74.3%, Cc1ccc(NC(=O)Cn2cc(S(=O)(=O)NC(C)C)c(S(=O)(=O)NC(C)C)c2)cc1Cl 68.9%
